Laboratory results: PubChem BioAssay AID504444 (National Center for Advancing Translational Sciences (NCATS), 2011)
About 7,500 (2.1%) of roughly 360,000 compounds were called active. Another 20% or so got no clear call; they are omitted. The call rests on the fitted dose curve; in most records, active means well fitted inhibition curve with a large enough effect; inconclusive means small, poorly fitted or top-dose-only effect, or effect the other way; inactive means flat fitted curve, though single readings scatter. The entries are a selection whose mix differs from that of the whole data set. Where a structure was tested more than once in an assay, its records may differ in their call.

Test: Nrf2 qHTS screen for inhibitors; further: nearly all actives have a fitted effect of over 60% in size
Details: A549 ARE-Fluc reporter, luciferase luminescence, 18-24 h; series mostly up to 46 µM; activity change, negative = inhibition: at the top concentration
Outline: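 Quantitative HTS in A549 cells stably bearing an antioxidant response element-firefly luciferase construct. Inhibition of Nrf2-driven transcription was scored by luminescence after 18-24 h of compound exposure at 37 °C.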
On the % scale 0 is the no-effect control and ±100 the full control effect; potency means the concentration at half of the fitted maximal effect.

Structure (SMILES) | activity change, negative = inhibition | Potency
O=C(CSc1ccc(-c2ccccn2)nn1)Nc1ccc(F)cc1F | inactive: -21.4% | –
CCOC(=O)CNc1nc(C#N)nc(N2CCOCC2)n1 | inactive: 1.3% | –
C[C@H]1CCC[C@]2(O[C@@H](CCO)C[C@@H](O)[C@@H]2O)O1 | inactive: 3.68% | –
COc1cc2c(=O)n(CCC(=O)NCC3CCCO3)c(=O)n(CC(=O)Nc3ccc(C)cc3C)c2cc1OC (stereo not drawn) | inactive: 4.46% [at 9.27 µM] | –
CS(=O)(=O)c1ccc(C(=O)Nc2cc(-c3ccccc3)nn2-c2ccccc2)cc1 | – | active: 14.6 µM
Cc1oc(-c2ccccc2)cc1C(=O)Nc1cccc(/C=C\C(=O)O)c1 | inactive: -13.5% | –
CCc1nn2c(=O)c(S(=O)(=O)Nc3ccc(C(C)C)cc3)c(C)nc2s1 | inactive: -19.6% | –
CCOc1ccc(Cn2c(=O)sc3ccccc32)cc1 | inactive: 3.51% | –
COc1ccc(C(=O)Nc2cccc(/C=C(\CCC(=O)O)c3nc4ccccc4s3)c2)cc1 | inactive: 2.58% | –
CCn1cc(C(=O)N2CCN(c3ccccc3)CC2)c(=O)c2cc(S(=O)(=O)N3CCOCC3)ccc21 | inactive: -11.5% | –
C=CCC[C@@H](Cc1ccc(F)cc1)C(=O)OC[C@@H](Cc1c[nH]c2ccccc12)NC(=O)[C@@H](CC=C)CC(=O)N[C@@H](CO)Cc1ccccc1 | inactive: 7.77% | –
COc1cccc(N2CCN(C(=O)c3cc4c(s3)-c3ccccc3OC4)CC2)c1 | inactive: -11.5% | –
CC(C)COc1ccc(C(=O)N(CC(=O)Nc2ccccc2C(F)(F)F)Cc2ccco2)cc1 | – | active: 18.4 µM
Cc1cc2[nH]c(=O)c(=O)[nH]c2cc1S(=O)(=O)N1CCN(c2ccccc2F)CC1 | inactive: -6.16% | –
O=C(NCc1ccc(Cl)cc1)N1CCN(Cc2ccccc2)CC1 | – | active: 23.1 µM
C=CC[C@@H](CC(=O)N[C@@H](CO)Cc1ccccc1)C(=O)N[C@@H](C)COC(=O)[C@@H](CC=C)Cc1ccc(F)cc1 | inactive: -0.849% | –
O=C(C1CCN(c2ncnc3c2nc2n3CCCCC2)CC1)N1CCN(c2ccc(F)cc2)CC1 | inactive: 1.97% | –
CCCN(CCC)CCNC(=O)c1cc2c(-c3ccc(Cl)cc3)nn(C)c2s1 | inactive: 7.07% | –
COC(=O)C1=C(C)NC(C)=C([N+](=O)[O-])C1c1ccccc1C(F)(F)F (stereo not drawn) | inactive: -24% | –
C=C1CCN(C(CC(C)C)C(=O)OC)S(=O)(=O)c2ccccc21 (stereo not drawn) | inactive: -2.38% | –
CC(=O)Oc1ccc(C(=O)Nc2cccc(-c3nnc(-c4ccco4)o3)c2)cc1 | – | active: 16.4 µM
CC1=C(C(=O)OCc2ccc3c(c2)OCO3)C(c2ccccc2)NC(=O)N1 (stereo not drawn) | – | active: 8.2 µM

Structure (SMILES) | activity change, negative = inhibition | Potency
O=C1c2ccccc2-c2nc3ccccc3n21 | inactive: 11.3% | –
CCCCCn1c(=O)[nH]c2cc(C(=O)N3CCN(c4ccccc4F)CC3)ccc2c1=O | inactive: 1.67% [at 9.27 µM] | –
CC1=C(C(=O)OCc2ccc3c(c2)OCO3)C(c2ccccc2OCc2ccccc2)NC(=O)N1 (stereo not drawn) | – | active: 13 µM
C[C@H](NC(=O)c1[nH]cnc1C(=O)Nc1ccc(Cl)cc1)c1ccccc1 | – | active: 18.4 µM
CN=C1SC(CC(=O)NCCc2ccc(OC)c(OC)c2)C(=O)N1C (stereo not drawn) | inactive: 11.7% | –
COc1ccccc1NC(=O)Cn1nnc(C(=O)NCc2ccc3c(c2)OCO3)c1N | inactive: 2.8% | –
Cc1ccc(Nc2c(-c3ccco3)nc3nc(C)cc(C)n23)cc1 | inactive: 7.14% | –
O=C(NCCCn1ccnc1)/C(=C/c1cccnc1)NC(=O)c1ccco1 | inactive: 15.8% | –
COc1cc(/C=C2\SC(=S)N(CC(=O)O)C2=O)ccc1OC(=O)c1ccco1 | inactive: -11.4% | –
CC1CC=CC2C1C(=O)N(Cc1ccccc1)C2c1ccc2ccccc2c1Br (stereo not drawn) | inactive: -25.7% | –
COc1ccc(C2=Nn3c(nnc3-c3ccccc3OC)SC2)cc1OC | – | inactive
CCOC(=O)c1cc2c(=O)n3ccccc3nc2n(CC(C)C)c1=NC(=O)c1c(-c2c(F)cccc2Cl)noc1C | inactive: -5.78% [at 9.27 µM] | –
O=C(Nc1ccc(C(=O)N2CCCc3ccccc32)cc1)c1cccs1 | – | active: 20.6 µM
COc1ccccc1Nc1cc(C(=O)NC2CCCC2)c2ccccc2n1 | inactive: 2.21% | –
CC1(C)CCc2cc(S(=O)(=O)N3CCN(S(=O)(=O)c4c(F)cccc4F)CC3)ccc2O1 | – | inactive
O=C1OC[C@H]2CCCN2C(=O)[C@@H](CC(=O)N(CCO)Cc2ccccc2)C/C=C\CC[C@H]1Cc1ccc(F)cc1 | inactive: -8.1% | –
Cc1ccc(CCNC(=O)CCS(=O)(=O)c2ccc3c(c2)oc(=O)n3C)cc1 | inactive: 1.34% | –
Cc1ccc(-c2nnc(NC3CCCCC3)c3ccccc23)cc1S(=O)(=O)N1CCN(C)CC1 | – | active: 23.1 µM
CCCCN(CC)CCNC(=O)c1nn(-c2ccc(OC)cc2)c(=O)c2c1c1ccccc1n2C | inactive: 15.4% | –
Cc1ccc(NC(=O)CCNS(=O)(=O)c2cccs2)cc1F | inactive: 5.52% [at 9.27 µM] | –
CCCCCCSc1ccc([C@@H]2[C@H]3C(=O)N(C)C(=O)[C@H]3[C@]3(C(=O)OC)CCCCN23)cc1OC | inactive: -11.5% | –
CN(C)c1ccc(/C=C(/C#N)C(=O)Nc2nc3c(s2)CCN(Cc2ccccc2)C3)cc1 | inactive: -2.72% | –

Structure (SMILES) | activity change, negative = inhibition | Potency
O=C(CN1C(=O)S/C(=C\C=C\c2ccccc2)C1=O)Nc1ccc(C(=O)O)cc1 | inactive: 0% | –
CC(C)[C@H](Nc1ccc(C(F)(F)F)cc1[N+](=O)[O-])C(=O)O | inactive: 5.44% | –
CCO[C@H]1OC(C(=O)N2CCN(Cc3ccc4c(c3)OCO4)CC2)=C[C@@H](C)[C@@H]1CCCO | inactive: 9% | –
CCc1ccc2[nH]c(=O)c(C3C(C#N)=C(N)Oc4c3ccc3cccnc43)cc2c1 (stereo not drawn) | – | active: 14.6 µM
O=C1NC[C@H](c2ccccc2)OC(=O)[C@H](Cc2ccc(F)cc2)C/C=C\C[C@H]1CC(=O)N(CCO)Cc1ccccc1 | inactive: -19.1% | –
O=C1OC(c2ccccc2)(c2ccccc2)N2CCN(C(=O)NCc3ccc(F)cc3)CC12 (stereo not drawn) | inactive: -29.2% | –
C=CCOC(=O)/C(=C\c1cccc2ccccc12)NC(=O)c1ccccc1 | inactive: 3.51% | –
Cc1ccc(NC(=O)CCc2c(C)nn(-c3ccc(N4CCCCC4)nn3)c2C)cc1F | inactive: 15.5% | –
Cc1ccc(NC(=O)CCn2c(=O)c3cccn3c3ccccc32)cc1C | inactive: -18.2% | –
N#C/C(=C\C=C\c1ccccc1)C(=O)Nc1ccccc1 | inactive: 0.398% | –
COC(=O)C1=C(C)NC(C)=C(C(=O)OC)C1C(=O)OC(C)C(=O)c1ccccc1 (stereo not drawn) | inactive: -5.88% | –
COc1cccc(N2CCN(C(=O)c3cc4c(=O)n(Cc5ccccc5)ccc4nc3C)CC2)c1 | inactive: 3.62% | –
CCC1(C)Cc2c(sc3[nH]c(=S)n(Cc4ccccc4)c(=O)c23)CO1 (stereo not drawn) | – | active: 16.4 µM
OCC[C@@H]1C[C@H](O)[C@@H](O)[C@@]2(Cc3ccccc3CO2)O1 | inactive: -7.48% | –
Cc1ncc(C[n+]2csc(CCO)c2C)c(N)n1 | inactive: 2.14% | –
Cc1c(Cl)cnc(NC(=O)COC(=O)[C@@H](NC(=O)c2ccco2)C(C)C)c1Cl | inactive: 5.64% | –
COc1ccc(OC2CCN(S(=O)(=O)c3ccc(OC)cc3)CC2)cc1 | inactive: -1.62% | –
C=CC[C@H](CC(=O)N(CCO)Cc1ccccc1)C(=O)N[C@H](C)COC(=O)[C@@H](CC=C)CC(=O)OC(C)(C)C | inactive: -17.3% | –
O=C(CCCN1C(=O)/C(=C/c2cccs2)SC1=S)Nc1cccnc1 | inactive: 4.05% | –
C[C@@H]1CCC[C@]2(O[C@H](CCO)C[C@H](O)[C@H]2O)O1 | inactive: -1.24% | –
COC(=O)c1cc(S(=O)(=O)NCC2CCN(Cc3ccc(F)cc3)CC2)cn1C | inactive: -9.48% | –
COc1ccc(C2=NS(=O)(=O)N(C)C(C(=O)Nc3cc(C)ccc3O)=C2)cc1OC | inactive: -7.57% | –

Structure (SMILES) | activity change, negative = inhibition | Potency
O=C(Nc1nnc(S(=O)(=O)N2CCCCC2)s1)c1ccc(Cl)cc1 | inactive: -6.23% | –
CCOc1ccccc1CNC(=O)c1nn(C)c2c1CS(=O)(=O)c1ccccc1-2 | inactive: -22.6% | –
CC(C)(C)OC(=O)C[C@H]1C/C=C\C[C@H](CC(=O)N[C@H](CO)Cc2ccccc2)C(=O)N[C@H](Cc2ccccc2)COC1=O | inactive: -15.6% | –
Cc1ccccc1-c1nc(CS(=O)CC(=O)NCCc2ccc(Cl)cc2)c(C)o1 (stereo not drawn) | inactive: 8.31% | –
COc1cccc(NC(=O)c2ccc(CN3CCc4ccccc4C3)cc2)c1 | – | active: 14.6 µM
O=C1N[C@@H](c2ccccc2)COC(=O)[C@H](Cc2ccc(F)cc2)C/C=C\C[C@@H]1CC(=O)N(CCO)Cc1ccccc1 | inactive: -25.7% | –
CCOC(=O)c1sc2nc(C)nc(NCc3ccccc3OC)c2c1C | – | active: 20.6 µM
Cn1ncc2c(O/N=C(\N)c3ccc(C(C)(C)C)cc3)ncnc21 | – | active: 18.4 µM
Cc1ccc(SCC(c2ccccc2)N2CCN(CCc3ccccc3)CCC2=O)cc1 (stereo not drawn) | inactive: -3.68% | –
Cc1ccc2nsnc2c1NC(=O)c1ccc(-c2cc(Cl)ccc2Cl)o1 | – | active: 13 µM
CC1CN(S(=O)(=O)c2cccc(C(=O)Nc3ccccc3N3CCCCC3)c2)CC(C)O1 (stereo not drawn) | – | active: 16.4 µM
CCC1CN(C(=O)NCc2ccccc2)c2cc(Cl)ccc2O1 (stereo not drawn) | inactive: 19.1% | –
C[C@H](CO)N1C[C@H](C)[C@@H](CN(C)C(=O)Nc2ccc(C(F)(F)F)cc2)Oc2ccc(NC(=O)NC3CCCCC3)cc2C1=O | inactive: 12.5% | –
CC(=O)c1ccc(N2CCN(C(=O)CCCn3c(=O)[nH]c4ccsc4c3=O)CC2)cc1 | inactive: -4.5% [at 9.27 µM] | –
O=C(Nc1nnc(S(=O)(=O)N2CCCCCC2)s1)c1ccc(Cl)cc1 | inactive: -10% | –
COc1ccccc1N1CCN(C(=O)CNS(=O)(=O)c2ccc(Br)s2)CC1 | inactive: -0.0254% | –
CC1CCCCN1C(=O)CCS(=O)(=O)c1cc2c(cc1Cl)NC(=O)CO2 (stereo not drawn) | inactive: 14% | –
Cc1ccc(SCC(Cc2ccccc2)N2CCN(CC(C)C)CCC2=O)cc1 (stereo not drawn) | inactive: 2.56% | –
COc1ccc(NC(=O)c2nc[nH]c2C(=O)N[C@H](C)c2ccccc2)cc1 | inactive: -26.9% | –
Cc1cccc(NS(=O)(=O)c2nnc(NC(=O)c3cccc(C)c3)s2)c1 | inactive: 2.03% | –
CCc1ccc(S(=O)(=O)Nc2cc3c(cc2N2CCOCC2)n(C)c(=O)c(=O)n3C)cc1 | inactive: -10.9% | –
O=C(C1=C[C@@H](c2ccc(Br)cc2)C[C@@H](OCCCCO)O1)N1CCN(Cc2ccc3c(c2)OCO3)CC1 | inactive: -21.6% | –
